“And” between values parts separate entries of the source, which are not always exact repeats. Identical values can stand only once.
How the values were obtained:
[1] = molecular target: T1, recombinant human tau protein, isoform 2N4R (Tau-441) (human, UniProt P10636-8 1-441); experiment: SPR (Biacore 3000), over immobilized Tau-441, duplicate injection
T1 construct: Bought
Experimental: (§1) Surface Plasmon Resonance (SPR): All binding assays for DH-Tau15 and Fc-Tau15 were carried out at 25° C. on a Biacore™ 3000 instrument (GE Healthcare). […] The running buffer for all SPR experiments was HBS-EP+ (10 mM HEPES, 150 mM NaCl, 3 mM EDTA, pH 7.4, 0.05% surfactant P20; GE Healthcare). The antibodies were injected at 20 μL/min for 2 min with a dissociation time of 30 min. Data was analyzed using the Biacore 3000 BIAevaluations software Version 4.1.

[2] = molecular target: T1, recombinant human tau protein, isoform …; experiment: SPR (Biacore 3000), over immobilized Tau-441
Experimental: as §1

B1: Tau15-Fc fusion (Fc-Tau15) (Fc fusion)
chain: QVKLEESGGGLVQPGGSLRLSCAASGFTFSNFAMTWVRQSPGKGLEWVSAIDNDGGRTSYSDSVKGRFTISRDNAKNTLYLQMNSLKPEDTAMYYCAAMNLATRKWELWGQGTQVTVSSA[in this place human IgG1 Fc with K218I (EU numbers)]
notes: Tau15 VH fused to human Fc; expressed in HEK-293-6E cells, purified on protein A; dimer by SEC; also called VH-Fc fusion
With B1 the koff [1] was 6.73e-05 s⁻¹ and 7.02e-05 s⁻¹ and the “fold slower off rate than monomeric Tau15” value [2] was about 1000 fold.

From patent US20170296680A1 (NATIONAL RESEARCH COUNCIL OF CANADA, published 2017)
